The other results are listed elsewhere or left out.
Test system: PfAP2-HC AP2 domain (GST-tagged)
Experiment: gcPBM binding intensity (ln(normalized median fluorescence intensity)); higher = stronger DNA binding
Method in brief: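 GST-tagged P. falciparum DNA-binding domains, expressed in E. coli (about 25 μg on average), were applied for 1 h to an Agilent 4 × 180k array of primer-extended double-stranded 36-bp intergenic genomic probes plus negative controls. The binding buffer was 1× PBS with 1% milk, 0.2 mg/ml BSA, 0.5% salmon testes DNA and 0.03% Triton X-100. Bound protein was detected with Alexa488 anti-GST antibody and scanned at 488 nm. Binding intensity is the highest Masliner-normalised natural-log median intensity across replicate spots of either probe orientation.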

Sequence	gcPBM binding intensity (ln)
TATTATTTTTTTATTCTATTAAAAAGAAAAAAATGA [CACACA_negctrl_site407]	9.14
TATATATATATATAAACACACATAAATATAAATATA [CACACA_site1121]	9.88
TCTTTTACAAAAGCTATAACATTCACCACATTATAA [GTGCAC_negctrl_site133]	9.47
ATATATATATTTTATGCATGTTCATTTTCTATATTT [TGCATGCA_site442]	9.87
GTTAATGTGGTTACTTGTACATATTAACGTCTTTTT [XGTACX_site2617]	9.71
ATAATATATACGTGTGTGCACATGACAAAAGCATAT	10.6
AAAAAAAAAATATACACACACATATATATATATATA [CACACA_site3404]	9.84
ATAAAAAAAAGACACACACACATATATATATATATA [CACACA_site3073]	10.3
TAAATATATTTCATGACATGCAACTTGTTTTTTTGT [TGCATGCA_site456]	9.88
TCAACACACGTGGAATGTACTTTAGTATAAGAATTC [XGTACX_site7842]	9.69
CAAAGGGAAATTAACACACACATATTTATATTTATA [CACACA_site7202]	10.1
ATGTATATGATTAAATGTACGTAAACAAATTTGTAA [XGTACX_site8174]	9.81
ACCACATAAAACAAATGTACTTGAAATATATGCGTA [XGTACX_site5155]	9.67
AAGAAAACTTAAAATAAAAGCATATTTTATCTTACA [TGCATGCA_negctrl_site366]	9.36
TGCAGTCTGGAGAAGAGTACATAGTATCTGGTAGCT [XGTACX_site2021]	9.48
AGAGTACAAGTAAATACACACATATAGATGAAAATA [CACACA_site6635]	10.1
ATATATATATATATATGTACACACATCAATCATATT [XGTACX_site4005]	9.89
TATTAATAAATTTATAAAACAGGTATATATATATAT [CACACA_negctrl_site615]	9.54
TTTTATACATAAATGTGTACGTATATATAATGAATT [XGTACX_site2762]	9.6

Sequence	gcPBM binding intensity (ln)
TAAATATGCTCACAGATGCACTAACACATTTTTATA [GTGCAC_site9997]	9.72
TATTGTAGAGGCAAAAGTACACATTTAATAATTTCC [XGTACX_site1151]	9.68
ATCTATATAATATATACACACAAATATACAAAAAAA [CACACA_site1013]	9.86
ATAAATTAAAGACACACACACATCTGGATACCCCTA [CACACA_site7546]	10.4
TACATGCATTTCTCATGTACATAATTTTCCCATATT [XGTACX_site5158]	9.61
TTATATTATATATATAGTACACATGTAATATTTCAA [XGTACX_site1791]	9.51
TATGCTACAAGGAGAACACACAATTGCCACTTTTGG [CACACA_site2166]	9.71
AACCATTATTTCTCTACACACATTTATGTCATTTAC [CACACA_site1499]	10.1
TCCTTATATGGGCACACACACACAATAAAATGAAAA [CACACA_site1030]	10.3
AAAATTAGGTATATATGTACATATATAAATATATAT [XGTACX_site3555]	9.86
GTTTATATTAAACAAACACACACATATATATATATA [CACACA_site8749]	9.84
ATTTAGAATGCGTATACACACATATATAGATTTGCT [CACACA_site626]	9.77
AAAAAAATTAGACACACACACACATATAAATATGTA [CACACA_site6618]	10.8
AATAGAACTATTACACGTACAGAACATGAATTAGTT [XGTACX_site7518]	9.74
TTTTTTAATTAGTACAAACACACATATACAGACAAA [CACACA_site2564]	9.9
TGTTATATATGTAATTGTACACTTATACAAAATTAT [XGTACX_site6350]	9.65
TTATTAATATATAAATGTACATATACAATACATAAA [XGTACX_site5571]	9.65
TATTTAAGAGTATGAACACACATCATACACATATAA [CACACA_site3617]	9.77
TATGTTTGTGTATATATTTATTTTTATGTAATTATA [GTGCAC_negctrl_site219]	9.93

Sequence	gcPBM binding intensity (ln)
CAAAATATAACATCATCACACACATATACTTTATAT [CACACA_site8292]	10.8
ATTTAAAAATAAAGAACACACATATGTAAAATATAT [CACACA_site3754]	9.84
TCAGGAATATAAAGTGCACACATAATTTGGGGGCAA [CACACA_site7974]	10.1
TATATAAGGATATATACACACATATAGGTATTTATA [CACACA_site7092]	9.86
TTTTAAAAAAATAAAAAATAATAAAAAAAATAAAAA [CACACA_negctrl_site1693]	9.26
AATATGATTATTACCCGTACATATTACCTTATGGTA [XGTACX_site1714]	9.61
AATGATATTATCTCTTCACACACTCACATACAGACA [CACACA_site8335]	10.3
AAAAATAAATAAAGTGGTACATAAAAAAGAGAAATT [XGTACX_site874]	9.9
GTGCATATGTAGATATGTACATATTTATTTATTATT [XGTACX_site7343]	9.72
TTTACAGATACATTCACACATAAATTCATGTATAAT [CACACA_site5387]	9.72
ATATATAATTTTTGTTGTACATTATAAAAATAATTA [XGTACX_site2738]	9.09
ATTGTTATGAGAACAGCACACAAGCTACATCATATA [CACACA_site8192]	9.77
GCGGCGGTATCATGCACACGTATATATTGTAACAGT [CACACA_site4958]	9.79
TCATTGAAAAAAATGTGTACTCATCAAGTATATATT [XGTACX_site6430]	9.56
ATAAGAAAAAAGAACTGTACTAATAAAATATAAAAA [XGTACX_site3715]	9.64
ATTATATAATTGTCTTCACACACACCGATATATATA [CACACA_site8883]	10.5
GGATTTATTATATATACACACATACATATATATATA [CACACA_site8669]	9.88
GTCTAAGCTTATAGGCGTACACATGAATATGGATGT [XGTACX_site2439]	9.78
ATACATAAAATTAAAACACACATTTGATTAAATACG [CACACA_site7088]	9.79
